Test results from PMC4265154, “A reversible Renilla luciferase protein complementation assay for rapid identification of protein–protein interactions reveals the existence of an interaction network involved in xyloglucan biosynthesis in the plant Golgi apparatus” (Journal of Experimental Botany, 2014).
Results are given in words; binding and its absence hold for the method and conditions named. Binding seen in cells or lysates may run through a third protein. Some binding calls cover weakened binding; strength is not graded here. Where a sequence is shown, tags or fusion partners need not be part of it.

Assays:
Experiment in all cases: split reporter; Rluc-PCA: proteins with C-terminal hRluc[F1]-HA and hRluc[F2]-FLAG co-expressed with p19 in N. benthamiana leaves for 72 h (Agrobacterium OD600 0.2 each, p19 0.05); pooled leaf discs macerated in 0.5 M NaCl, 0.1 M potassium phosphate pH 7.4, 1 mM EDTA, 0.02% BSA, protease inhibitors; 10 uM coelenterazine-h, luminescence 30 s; compared with p19 alone
[1] = target: T1, FUCO…1 (FUT1) fused to hRluc fragment [F1] or [F2] (Arabidopsis thaliana) (UniProt Q9SWH5)
T1 sequence: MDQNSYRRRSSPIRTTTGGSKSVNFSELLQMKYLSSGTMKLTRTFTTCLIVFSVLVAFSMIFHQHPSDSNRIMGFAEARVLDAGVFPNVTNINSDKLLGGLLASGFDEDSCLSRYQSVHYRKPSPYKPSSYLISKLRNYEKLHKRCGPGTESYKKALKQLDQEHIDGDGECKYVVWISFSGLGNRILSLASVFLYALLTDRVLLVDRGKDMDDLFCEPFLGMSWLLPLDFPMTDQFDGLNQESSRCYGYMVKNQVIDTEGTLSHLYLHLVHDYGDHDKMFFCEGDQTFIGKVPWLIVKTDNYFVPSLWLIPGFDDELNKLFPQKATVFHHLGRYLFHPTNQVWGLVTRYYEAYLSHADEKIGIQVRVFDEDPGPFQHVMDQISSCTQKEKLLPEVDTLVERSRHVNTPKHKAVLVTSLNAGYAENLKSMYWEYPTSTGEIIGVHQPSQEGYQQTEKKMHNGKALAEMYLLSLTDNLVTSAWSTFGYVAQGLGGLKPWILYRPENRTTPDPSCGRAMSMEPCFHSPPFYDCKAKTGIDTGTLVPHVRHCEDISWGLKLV

[2] = target: T2, IRX10-L fused to hRluc fragment [F1] or [F2] (Arabidopsis thaliana) (UniProt Q940Q8)
T2 sequence: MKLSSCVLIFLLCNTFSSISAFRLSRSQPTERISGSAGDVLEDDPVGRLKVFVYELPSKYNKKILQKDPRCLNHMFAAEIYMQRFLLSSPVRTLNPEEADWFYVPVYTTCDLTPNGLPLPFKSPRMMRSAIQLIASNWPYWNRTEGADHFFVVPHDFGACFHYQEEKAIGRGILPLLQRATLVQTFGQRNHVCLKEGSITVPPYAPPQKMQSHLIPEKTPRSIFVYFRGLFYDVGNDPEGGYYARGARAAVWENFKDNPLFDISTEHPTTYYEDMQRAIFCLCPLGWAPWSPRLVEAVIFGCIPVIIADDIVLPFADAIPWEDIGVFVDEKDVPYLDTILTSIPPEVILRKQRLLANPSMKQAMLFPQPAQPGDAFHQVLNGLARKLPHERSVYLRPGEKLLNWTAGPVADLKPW

[3] = target: T3, IRX14 fused to hRluc fragment [F1] or [F2] (Arabidopsis thaliana) (UniProt Q8L707)
T3 sequence: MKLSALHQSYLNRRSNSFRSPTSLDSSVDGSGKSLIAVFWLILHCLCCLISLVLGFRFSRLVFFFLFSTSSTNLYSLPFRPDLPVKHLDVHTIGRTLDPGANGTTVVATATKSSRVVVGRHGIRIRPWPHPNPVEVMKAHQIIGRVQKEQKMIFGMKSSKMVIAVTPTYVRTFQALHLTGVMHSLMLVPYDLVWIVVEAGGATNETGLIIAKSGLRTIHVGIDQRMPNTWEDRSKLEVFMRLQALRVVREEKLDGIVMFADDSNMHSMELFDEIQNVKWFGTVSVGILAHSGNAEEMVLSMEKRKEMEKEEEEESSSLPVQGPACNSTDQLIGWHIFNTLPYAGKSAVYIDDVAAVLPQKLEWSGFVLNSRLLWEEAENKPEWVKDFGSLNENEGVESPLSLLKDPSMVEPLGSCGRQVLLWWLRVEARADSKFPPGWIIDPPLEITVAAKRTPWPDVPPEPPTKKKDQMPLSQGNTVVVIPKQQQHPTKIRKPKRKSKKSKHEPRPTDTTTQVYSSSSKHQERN

[4] = target: T4, XXT5 fused to hRluc fragment [F1] or [F2] (Arabidopsis thaliana) (UniProt Q9CA75)
T4 sequence: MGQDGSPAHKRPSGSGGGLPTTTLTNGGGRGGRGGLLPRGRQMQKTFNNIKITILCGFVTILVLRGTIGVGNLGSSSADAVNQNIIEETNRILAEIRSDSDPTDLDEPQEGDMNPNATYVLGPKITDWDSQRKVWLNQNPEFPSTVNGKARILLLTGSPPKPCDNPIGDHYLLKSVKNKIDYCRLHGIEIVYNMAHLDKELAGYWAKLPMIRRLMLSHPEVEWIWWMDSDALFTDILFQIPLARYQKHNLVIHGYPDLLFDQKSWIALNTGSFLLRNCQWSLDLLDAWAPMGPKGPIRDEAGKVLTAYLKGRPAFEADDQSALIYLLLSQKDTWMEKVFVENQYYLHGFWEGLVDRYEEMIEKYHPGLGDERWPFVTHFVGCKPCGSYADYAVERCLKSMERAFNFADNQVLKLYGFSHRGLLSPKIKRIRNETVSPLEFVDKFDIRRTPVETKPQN

B1: MURUS3/KATAMARI1 (MUR3) fused to hRluc fragment [F1] or [F2] (natural protein, Arabidopsis thaliana, UniProt Q7XJ98 1-619, looked up)
chain: MFPRVSMRRRSAEVSPTEPMEKGNGKNQTNRICLLVALSLFFWALLLYFHFVVLGTSNIDKQLQLQPSYAQSQPSSVSLRVDKFPIEPHAAPSKPPPKEPLVTIDKPILPPAPVANSSSTFKPPRIVESGKKQEFSFIRALKTVDNKSDPCGGKYIYVHNLPSKFNEDMLRDCKKLSLWTNMCKFTTNAGLGPPLENVEGVFSDEGWYATNQFAVDVIFSNRMKQYKCLTNDSSLAAAIFVPFYAGFDIARYLWGYNISRRDAASLELVDWLMKRPEWDIMRGKDHFLVAGRITWDFRRLSEEETDWGNKLLFLPAAKNMSMLVVESSPWNANDFGIPYPTYFHPAKDSEVFEWQDRMRNLERKWLFSFAGAPRPDNPKSIRGQIIDQCRNSNVGKLLECDFGESKCHAPSSIMQMFQSSLFCLQPQGDSYTRRSAFDSMLAGCIPVFFHPGSAYTQYTWHLPKNYTTYSVFIPEDDVRKRNISIEERLLQIPAKQVKIMRENVINLIPRLIYADPRSELETQKDAFDVSVQAVIDKVTRLRKNMIEGRTEYDYFVEENSWKYALLEEGQREAGGHVWDPFFSKPKPGEDGSSDGNGGTTISADAAKNSWKSEQRDKTQ
notes: Made in two forms, one with [F1]-HA and one with [F2]-FLAG; a chain carries one of the two; also called MUR3-[F1]; MUR3-[F2]; source: N. benthamiana leaves, transient expression (A. tumefaciens GV3101, with p19), in crude leaf macerate; not shown: hRluc[F1]; (Renilla luciferase residues 1-110) with HA, C-terminal, kept; hRluc[F2]; (Renilla luciferase residues 111-310) with FLAG, C-terminal, kept
- binding [1]: binds

B2: IRX10 fused to hRluc fragment [F1] or [F2] (protein, UniProt Q9FZJ1 1-412)
chain: MKIHSCLSAILLFLFFSASSAKQNVRTERISGSAGDVLEDDPVGKLKVYVYELPSKYNKKLLQKDPRCLTHMFAAEIFMHRFLLSSPVRTRNPDEADWFYTPIYPTCDLTPTGLPLPFKSPRMMRSSIQLISSNWPYWNRTEGADHFFVVPHDFGACFHYQEEKAIERGILPLLQRATLVQTFGQRNHVCLDEGSITIPPFAPPQKMQAHFIPPDIPRSIFVYFRGLFYDVNNDPEGGYYARGARAAVWENFKNNPLFDISTDHPTTYYEDMQRAIFCLCPLGWAPWSPRLVEAVVFGCIPVIIADDIVLPFADAIPWEEIGVFVAEKDVPELDTILTSIPTEVILRKQRLLANPSMKRAMLFPQPAQPGDAFHQILNGLARKLPHDKSIYLKTGEKALNWTAGPVADLKPW
- binding [2]: no binding
- binding [3]: no binding

B3: XXT5 fused to hRluc fragment [F1] or [F2] (protein, UniProt Q9CA75 1-457)
chain: T4 sequence
- binding [4]: no binding
